Laboratory results reported in publication PMC7493027, “Mps1 dimerization and multisite interactions with Ndc80 complex enable responsive spindle assembly checkpoint signaling” (Journal of Molecular Cell Biology, 2020).
No constants are given. Whether binding was seen depends on the method and setting. For some of these results: Binding seen in cells or lysates may run through a third protein. Some entries that bind do so weakly or less than the wild type. Sequences can lack the tags named with a protein. Blank lines part the entries; values can stand above or below the binder they belong to.

What was measured:
[1] = biological target: T1, full-length Mps1, Flag-tagged or LAP-tagged (human) (UniProt P33981); experiment: co-IP; 293T cells co-transfected with Flag-Mps1 and LAP-Mps1 or GFP-ZW10; one group treated with reversine for 2 h; anti-Flag M2 beads; anti-GFP and anti-Flag blots
T1 sequence: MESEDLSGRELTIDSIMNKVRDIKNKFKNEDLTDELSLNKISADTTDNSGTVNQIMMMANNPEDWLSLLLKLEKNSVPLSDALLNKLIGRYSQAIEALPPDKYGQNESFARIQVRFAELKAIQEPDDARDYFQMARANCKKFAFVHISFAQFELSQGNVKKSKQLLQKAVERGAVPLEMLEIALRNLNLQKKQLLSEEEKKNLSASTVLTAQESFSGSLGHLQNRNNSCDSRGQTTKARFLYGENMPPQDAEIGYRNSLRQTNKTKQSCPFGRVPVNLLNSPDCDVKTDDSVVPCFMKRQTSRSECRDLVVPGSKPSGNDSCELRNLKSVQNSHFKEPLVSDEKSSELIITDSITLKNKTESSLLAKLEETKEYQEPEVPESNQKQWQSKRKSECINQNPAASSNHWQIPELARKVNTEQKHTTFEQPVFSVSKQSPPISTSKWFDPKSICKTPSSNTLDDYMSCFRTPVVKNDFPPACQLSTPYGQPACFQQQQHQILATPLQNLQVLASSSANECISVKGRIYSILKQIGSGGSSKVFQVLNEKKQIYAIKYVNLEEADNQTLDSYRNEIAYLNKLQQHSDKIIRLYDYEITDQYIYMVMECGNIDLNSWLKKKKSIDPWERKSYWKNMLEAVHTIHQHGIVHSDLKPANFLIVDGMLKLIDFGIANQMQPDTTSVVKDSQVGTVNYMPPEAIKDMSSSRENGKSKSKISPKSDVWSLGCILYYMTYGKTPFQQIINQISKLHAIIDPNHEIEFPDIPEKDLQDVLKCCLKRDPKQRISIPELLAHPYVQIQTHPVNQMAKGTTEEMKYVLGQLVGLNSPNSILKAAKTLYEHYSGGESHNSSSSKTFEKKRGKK

[2] = biological target: Mps1^WT, mCherry-LacI-tagged (bait) or GFP-tagged (prey) (human) (UniProt P33981); experiment: LacI/LacO-based in vivo interaction assay (recruitment to a LacO array); U2OS-LacO cells co-expressing mCherry-LacI-Mps1 baits and GFP-Mps1 preys; fixed 24 h after transfection; GFP signal at the LacO array
[3] = biological target: Mps1^N300 (amino acids 1–300), mCherry-LacI-tagged (bait) or GFP-tagged (prey) (human) (UniProt P33981); experiment: as above
[4] = biological target: Mps1^N300 (amino acids 1–300), YFPN- or YFPC-tagged for BiFC (human) (UniProt P33981); experiment: split reporter; BiFC with YFPN- and YFPC-tagged Mps1 fragments co-expressed in cells; with or without reversine (Supplementary Figure S4G and H)
[5] = biological target: Mps1^PK (protein kinase domain, amino acids 516–792), YFPN- or YFPC-tagged for BiFC (human) (UniProt P33981); experiment: as above
[6] = biological target: Mps1^C342 (amino acids 516–857), YFPN- or YFPC-tagged for BiFC (human) (UniProt P33981); experiment: as above

- binding [1]: binds
B1: full-length Mps1, Flag-tagged or LAP-tagged (protein, UniProt P33981 1-857)
chain: MESEDLSGRELTIDSIMNKVRDIKNKFKNEDLTDELSLNKISADTTDNSGTVNQIMMMANNPEDWLSLLLKLEKNSVPLSDALLNKLIGRYSQAIEALPPDKYGQNESFARIQVRFAELKAIQEPDDARDYFQMARANCKKFAFVHISFAQFELSQGNVKKSKQLLQKAVERGAVPLEMLEIALRNLNLQKKQLLSEEEKKNLSASTVLTAQESFSGSLGHLQNRNNSCDSRGQTTKARFLYGENMPPQDAEIGYRNSLRQTNKTKQSCPFGRVPVNLLNSPDCDVKTDDSVVPCFMKRQTSRSECRDLVVPGSKPSGNDSCELRNLKSVQNSHFKEPLVSDEKSSELIITDSITLKNKTESSLLAKLEETKEYQEPEVPESNQKQWQSKRKSECINQNPAASSNHWQIPELARKVNTEQKHTTFEQPVFSVSKQSPPISTSKWFDPKSICKTPSSNTLDDYMSCFRTPVVKNDFPPACQLSTPYGQPACFQQQQHQILATPLQNLQVLASSSANECISVKGRIYSILKQIGSGGSSKVFQVLNEKKQIYAIKYVNLEEADNQTLDSYRNEIAYLNKLQQHSDKIIRLYDYEITDQYIYMVMECGNIDLNSWLKKKKSIDPWERKSYWKNMLEAVHTIHQHGIVHSDLKPANFLIVDGMLKLIDFGIANQMQPDTTSVVKDSQVGTVNYMPPEAIKDMSSSRENGKSKSKISPKSDVWSLGCILYYMTYGKTPFQQIINQISKLHAIIDPNHEIEFPDIPEKDLQDVLKCCLKRDPKQRISIPELLAHPYVQIQTHPVNQMAKGTTEEMKYVLGQLVGLNSPNSILKAAKTLYEHYSGGESHNSSSSKTFEKKRGKK

- binding [2]: binds
B2: Mps1^WT, mCherry-LacI-tagged (bait) or GFP-tagged (prey) (protein, UniProt P33981 1-857)
chain: MESEDLSGRELTIDSIMNKVRDIKNKFKNEDLTDELSLNKISADTTDNSGTVNQIMMMANNPEDWLSLLLKLEKNSVPLSDALLNKLIGRYSQAIEALPPDKYGQNESFARIQVRFAELKAIQEPDDARDYFQMARANCKKFAFVHISFAQFELSQGNVKKSKQLLQKAVERGAVPLEMLEIALRNLNLQKKQLLSEEEKKNLSASTVLTAQESFSGSLGHLQNRNNSCDSRGQTTKARFLYGENMPPQDAEIGYRNSLRQTNKTKQSCPFGRVPVNLLNSPDCDVKTDDSVVPCFMKRQTSRSECRDLVVPGSKPSGNDSCELRNLKSVQNSHFKEPLVSDEKSSELIITDSITLKNKTESSLLAKLEETKEYQEPEVPESNQKQWQSKRKSECINQNPAASSNHWQIPELARKVNTEQKHTTFEQPVFSVSKQSPPISTSKWFDPKSICKTPSSNTLDDYMSCFRTPVVKNDFPPACQLSTPYGQPACFQQQQHQILATPLQNLQVLASSSANECISVKGRIYSILKQIGSGGSSKVFQVLNEKKQIYAIKYVNLEEADNQTLDSYRNEIAYLNKLQQHSDKIIRLYDYEITDQYIYMVMECGNIDLNSWLKKKKSIDPWERKSYWKNMLEAVHTIHQHGIVHSDLKPANFLIVDGMLKLIDFGIANQMQPDTTSVVKDSQVGTVNYMPPEAIKDMSSSRENGKSKSKISPKSDVWSLGCILYYMTYGKTPFQQIINQISKLHAIIDPNHEIEFPDIPEKDLQDVLKCCLKRDPKQRISIPELLAHPYVQIQTHPVNQMAKGTTEEMKYVLGQLVGLNSPNSILKAAKTLYEHYSGGESHNSSSSKTFEKKRGKK

Continued, binder first:

B3: Mps1^N300 (amino acids 1–300), mCherry-LacI-tagged (bait) or GFP-tagged (prey) (domain or fragment, UniProt P33981 1-300)
chain: MESEDLSGRELTIDSIMNKVRDIKNKFKNEDLTDELSLNKISADTTDNSGTVNQIMMMANNPEDWLSLLLKLEKNSVPLSDALLNKLIGRYSQAIEALPPDKYGQNESFARIQVRFAELKAIQEPDDARDYFQMARANCKKFAFVHISFAQFELSQGNVKKSKQLLQKAVERGAVPLEMLEIALRNLNLQKKQLLSEEEKKNLSASTVLTAQESFSGSLGHLQNRNNSCDSRGQTTKARFLYGENMPPQDAEIGYRNSLRQTNKTKQSCPFGRVPVNLLNSPDCDVKTDDSVVPCFMKRQ
- binding [3]: binds weakly

B4: Mps1^N300 (amino acids 1–300), YFPN- or YFPC-tagged for BiFC (domain or fragment, UniProt P33981 1-300)
chain: MESEDLSGRELTIDSIMNKVRDIKNKFKNEDLTDELSLNKISADTTDNSGTVNQIMMMANNPEDWLSLLLKLEKNSVPLSDALLNKLIGRYSQAIEALPPDKYGQNESFARIQVRFAELKAIQEPDDARDYFQMARANCKKFAFVHISFAQFELSQGNVKKSKQLLQKAVERGAVPLEMLEIALRNLNLQKKQLLSEEEKKNLSASTVLTAQESFSGSLGHLQNRNNSCDSRGQTTKARFLYGENMPPQDAEIGYRNSLRQTNKTKQSCPFGRVPVNLLNSPDCDVKTDDSVVPCFMKRQ
- binding [4]: binds weakly

B5: Mps1^PK (protein kinase domain, amino acids 516–792), YFPN- or YFPC-tagged for BiFC (domain or fragment, UniProt P33981 516-792)
chain: ECISVKGRIYSILKQIGSGGSSKVFQVLNEKKQIYAIKYVNLEEADNQTLDSYRNEIAYLNKLQQHSDKIIRLYDYEITDQYIYMVMECGNIDLNSWLKKKKSIDPWERKSYWKNMLEAVHTIHQHGIVHSDLKPANFLIVDGMLKLIDFGIANQMQPDTTSVVKDSQVGTVNYMPPEAIKDMSSSRENGKSKSKISPKSDVWSLGCILYYMTYGKTPFQQIINQISKLHAIIDPNHEIEFPDIPEKDLQDVLKCCLKRDPKQRISIPELLAHPYVQ
- binding [5]: binds

B6: Mps1^C342 (amino acids 516–857), YFPN- or YFPC-tagged for BiFC (domain or fragment, UniProt P33981 516-857)
chain: ECISVKGRIYSILKQIGSGGSSKVFQVLNEKKQIYAIKYVNLEEADNQTLDSYRNEIAYLNKLQQHSDKIIRLYDYEITDQYIYMVMECGNIDLNSWLKKKKSIDPWERKSYWKNMLEAVHTIHQHGIVHSDLKPANFLIVDGMLKLIDFGIANQMQPDTTSVVKDSQVGTVNYMPPEAIKDMSSSRENGKSKSKISPKSDVWSLGCILYYMTYGKTPFQQIINQISKLHAIIDPNHEIEFPDIPEKDLQDVLKCCLKRDPKQRISIPELLAHPYVQIQTHPVNQMAKGTTEEMKYVLGQLVGLNSPNSILKAAKTLYEHYSGGESHNSSSSKTFEKKRGKK
- binding [6]: binds

B7: GFP-ZW10 (protein, UniProt O43264 1-779)
chain: MASFVTEVLAHSGRLEKEDLGTRISRLTRRVEEIKGEVCNMISKKYSEFLPSMQSAQGLITQVDKLSEDIDLLKSRIESEVRRDLHVSTGEFTDLKQQLERDSVVLSLLKQLQEFSTAIEEYNCALTEKKYVTGAQRLEEAQKCLKLLKSRKCFDLKILKSLSMELTIQKQNILYHLGEEWQKLIVWKFPPSKDTSSLESYLQTELHLYTEQSHKEEKTPMPPISSVLLAFSVLGELHSKLKSFGQMLLKYILRPLASCPSLHAVIESQPNIVIIRFESIMTNLEYPSPSEVFTKIRLVLEVLQKQLLDLPLDTDLENEKTSTVPLAEMLGDMIWEDLSECLIKNCLVYSIPTNSSKLQQYEEIIQSTEEFENALKEMRFLKGDTTDLLKYARNINSHFANKKCQDVIVAARNLMTSEIHNTVKIIPDSKINVPELPTPDEDNKLEVQKVSNTQYHEVMNLEPENTLDQHSFSLPTCRISESVKKLMELAYQTLLEATTSSDQCAVQLFYSVRNIFHLFHDVVPTYHKENLQKLPQLAAIHHNNCMYIAHHLLTLGHQFRLRLAPILCDGTATFVDLVPGFRRLGTECFLAQMRAQKGELLERLSSARNFSNMDDEENYSAASKAVRQVLHQLKRLGIVWQDVLPVNIYCKAMGTLLNTAISEVIGKITALEDISTEDGDRLYSLCKTVMDEGPQVFAPLSEESKNKKYQEEVPVYVPKWMPFKELMMMLQASLQEIGDRWADGKGPLAAAFSSSEVKALIRALFQNTERRAAALAKIK
- binding [1]: no binding
